# Measured values: PubChem BioAssay AID686978 (National Center for Advancing Translational Sciences (NCATS), 2013)
# The campaign covered roughly 420,000 compounds. About 64,000 (15%) were called active. The inconclusive results got no clear call from the source; some entries with a clear call stand among them for comparison. Calls come from the whole dose curve; as a rule, active = well fitted inhibition curve with a large enough effect; inconclusive = small, poorly fitted or top-dose-only effect; inactive = flat fitted curve, though single readings scatter. No potency is given beside an inconclusive call; the fits are too rough.
# Test: qHTS for Inhibitors of human tyrosyl-DNA phosphodiesterase 1 (TDP1): qHTS in cells in absence of CPT; note: nearly all actives have a fitted effect of over 55% in size
# Conditions: DT40 Tdp1-/- hTDP1 cells, no CPT, ATP luminescence, 48 h; activity change, negative = growth inhibition: at 46.2 µM (top of the series) unless noted
# Method in brief: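 Luminescent ATP content (CellTiter-Glo) served as the growth readout. Knockout chicken DT40 cells expressing human TDP1 were exposed to compounds without camptothecin for a minimum 48 hr at 37 °C.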
# % is set by controls: 0 for no effect and ±100 for the full control effect; potency is the fitted concentration of half-maximal effect; tags give direction and shape of the fitted curve.
Compound,Potency,"activity change, negative = growth inhibition"
COc1ccc(C(=O)NN=C2CCCC2)cc1OC,inactive,–
CCOc1ccc2ncc(S(=O)(=O)c3ccccc3)c(N3CCN(c4ccccc4)CC3)c2c1,"inconclusive [inhibitor, single point]",–
CCC(C(=O)Nc1ccc(C(=O)OC)cc1)n1nc(-c2ccc(C)cc2)c2c(c1=O)CCCC2 (stereo not given),"inconclusive [inhibitor, single point]",–
COCC1CCCC1OS(N)(=O)=O (stereo not given),inactive,–
CC(=O)Nc1ccc(S(=O)(=O)N2CCN(c3ccc([N+](=O)[O-])c(NCCN4CCOCC4)c3)CC2)cc1,"inconclusive [inhibitor, partial curve]",–
CCOc1ccc(C(=O)N[C@H](C(=O)Nc2cccc(S(=O)(=O)N3CCCCC3)c2)C(C)C)cc1,"inconclusive [inhibitor, single point]",–
CCC1CSC(=Nc2ccc(C)cc2)N1C(=O)CN1C(=O)NC2(CCCC2)C1=O (stereo not given),inactive,–
COc1cccc(N2CCN(c3ccc(S(=O)(=O)N4CCN(C)CC4)cc3[N+](=O)[O-])CC2)c1,"inconclusive [inhibitor, single point]",–
COc1ccc(NS(=O)(=O)c2ccc(-n3nnc4ccccc43)c([N+](=O)[O-])c2)cc1,–,inconclusive: -33.9% [inhibitor]
COc1ccc(CN2CCN(C(=O)c3cccc4ccccc34)CC2)c(OC)c1OC,"inconclusive [inhibitor, single point]",–
CCOc1cc(C2Nc3ccccc3-c3nnc(SCc4ccccc4)nc3O2)ccc1OC (stereo not given),"inconclusive [inhibitor, single point]",–
Cc1cc(Br)ccc1NC(=O)C(Cc1ccccc1)NS(=O)(=O)c1ccc(Br)s1 (stereo not given),"inconclusive [inhibitor, single point]",–
C=C(C)Cn1c(SCC(=O)c2ccc(OC)cc2)nc2sc3c(c2c1=O)CCCC3,active: 11.6 µM,–
CCc1nc2c(OCCOc3ccccc3)cccn2c1N(C=O)Cc1ccc(OC)cc1,"inconclusive [inhibitor, single point]",–
Cc1ccc(C(CNC(=O)C(=O)Nc2ccc3c(c2)OCCO3)N2CCN(C)CC2)cc1 (stereo not given),"inconclusive [inhibitor, single point]",–
Cc1ccc(S(=O)(=O)N(C)c2ccc(OC(=O)c3cccs3)cc2)cc1C,"inconclusive [inhibitor, single point]",–
COc1cccc(CNCCNC(=O)c2ccco2)c1OC,inactive,–
C#CCn1c(COc2ccccc2C)nc2ccccc21,"inconclusive [inhibitor, single point]",–
CCOc1ccc(C(=O)NC2CCN(CC(=O)NCc3cccs3)CC2)cc1,inactive,–
CCn1c(/C=C/c2ccc(O)cc2)nc2ccccc2c1=O,active: 25.9 µM,–
Nc1nc2n(n1)C(=O)CC(c1ccccc1)N2 (stereo not given),inactive,–
COc1cc(/C=C2\SC(=O)N(CCNC(=O)c3sc4cc(F)ccc4c3Cl)C2=O)cc(OC)c1OC,"inconclusive [inhibitor, single point]",–
COc1cccc(CNC(=O)c2cc3cccc4c3n2CC(C)S4)c1OC (stereo not given),"inconclusive [inhibitor, single point]",–
O=C(c1ccco1)N1CCN(Cc2nnnn2CC2CCCO2)CC1 (stereo not given),"inconclusive [inhibitor, single point]",–

Compound,Potency,"activity change, negative = growth inhibition"
CCc1noc(C)c1C(=O)N1CCCSC1=Nc1ccccc1Cl,"inconclusive [inhibitor, single point]",–
CC1CC(C)CN(C(=O)/C=C/c2ccc(S(=O)(=O)N3CCOCC3)cc2)C1 (stereo not given),"inconclusive [inhibitor, single point]",–
CC(C)(C)n1nnnc1C(c1ccccc1)N1CCN(C(=O)c2ccco2)CC1 (stereo not given),"inconclusive [inhibitor, single point]",–
Cc1ccc(S(=O)(=O)N(CCc2ccccc2)c2ccc3c(c2)C2CC3CCN2C(=O)OCc2ccccc2)cc1 (stereo not given),active: 9.2 µM,–
Cc1cc(C)cc(N2CN=C3SCC(=O)N3C2)c1,"inconclusive [inhibitor, single point]",–
O=S(=O)(c1ccc(Br)cc1)c1nc(-c2ccccc2)oc1NCc1cccnc1,inactive,–
Cc1ccc(-n2cc(-c3ccccc3)c3c(NC4CCCC4)ncnc32)cc1,active: 23.1 µM,–
O=C(O)c1cc(Nc2cc(Cl)c3nonc3c2[N+](=O)[O-])ccc1O,"inconclusive [inhibitor, single point]",–
CCOc1ccc2nc(N(CCCN(C)C)C(=O)c3ccc(C(=O)c4ccccc4)cc3)sc2c1,"inconclusive [inhibitor, single point]",–
CC(=O)Oc1ccc(NC(=O)CSc2ccccc2)cc1,"inconclusive [inhibitor, single point]",–
CC(C)(C)n1cnc2cc(NC(=O)c3ccc(Cl)cc3)ccc21,"inconclusive [inhibitor, single point]",–
N#Cc1c(N)nc2c(c1-c1cccnc1)CCCCC2,"inconclusive [inhibitor, partial curve]",–
COc1ccc(NC(=S)Nc2ccc3c(c2)c(=O)n(C)n3-c2ccccc2)cc1,"inconclusive [inhibitor, single point]",–
O=S(=O)(c1ccc(Br)cc1)N1CCN(c2cc(-c3ccccc3)nc3ncnn23)CC1,active: 25.9 µM,–
CCOc1cc(/C=N\Nc2ccc([N+](=O)[O-])cc2)ccc1OCC(=O)Nc1ccc(C)c(C)c1,active: 14.6 µM,–
CN(C)CCNS(=O)(=O)c1ccc2c3c(cccc13)C(=O)N2,"inconclusive [inhibitor, single point]",–
CCC(C)(CCNC(=O)Cc1ccccc1)c1ccccc1OC (stereo not given),"inconclusive [inhibitor, single point]",–
O=C(c1ccc(NS(=O)(=O)c2ccc3[nH]c(=O)[nH]c3c2)cc1)N1CCCCC1,inactive,–
COc1cc2c(=O)c(S(=O)(=O)c3ccc(F)cc3)cn(Cc3ccccc3C)c2cc1OC,active: 18.4 µM,–
CSCc1c(C(=O)OCC(=O)NC2CCCCC2)oc2ccccc12,"inconclusive [inhibitor, partial curve, poor fit]",–
CC(C)Cn1nc(C(=O)NCc2ccccc2CN2CCCC2)c2ccccc2c1=O,–,inconclusive: -31.9% [inhibitor]
O=[N+]([O-])c1ccc(COc2ccc(CN3CCCCC3)cc2)cc1,"inconclusive [inhibitor, single point]",–
O=C(COC(=O)c1cccs1)NCc1ccco1,inactive,–
Cn1c(=O)cnc2cnc(Nc3ccccc3)nc21,"inconclusive [inhibitor, single point]",–

Compound,Potency,"activity change, negative = growth inhibition"
CCOC(=O)[C@]12CCCC=C1N(Cc1cccc3ccccc13)C(=O)[C@H](CC(=O)NCc1cccc(C(F)(F)F)c1)C2,"inconclusive [inhibitor, single point]",–
O=C(CN1C(=O)NC2(CCCC2)C1=O)Nc1ccc(F)c(Cl)c1,inactive,–
c1ccc2c(C(c3nnnn3-c3ccc4c(c3)OCCO4)N3CCCCC3)ccnc2c1 (stereo not given),"inconclusive [inhibitor, single point]",–
COc1cc(/C=C(\NC(C)=O)C(=O)Nc2cccc(O)c2)ccc1OC(C)=O,inactive,–
Cc1ccc(Cl)cc1-c1cc(C(=O)N2CCN(c3ccncc3)CC2)[nH]n1,"inconclusive [inhibitor, single point]",–
COc1ccc(-n2c(C)cc(C(=O)CSc3ccc(NC(C)=O)cc3)c2C)cc1,"inconclusive [inhibitor, single point]",–
C/C(=N\NC(=O)C(=O)Nc1cc(C)ccc1C)c1ccncc1,inactive,–
COc1ccccc1Cc1c(-c2ccc(C#N)cc2)nc2ccc(C)cn12,active: 18.4 µM,–
O=C(NC1CCCCC1)C1CC(=O)N(CCc2ccc(F)cc2)C1 (stereo not given),inactive,–
CCOc1ccccc1NC(=O)c1nc(SCc2ccccc2F)ncc1Cl,"inconclusive [inhibitor, single point]",–
Cc1ccccc1OCCC(=O)OCC(=O)N1CCN(S(=O)(=O)c2ccc(Cl)cc2)CC1,inactive,–
COC(=O)CCN1CCc2cc(N=Nc3ccc([N+](=O)[O-])cc3)ccc21,inactive,–
CCOC(=O)c1cc(S(=O)(=O)Nc2ccc(Br)c(C)c2)[nH]n1,–,inconclusive: -33.2% [inhibitor]
COc1cc(C2c3c(oc4cc(C)c(C)cc4c3=O)C(=O)N2CCCN2CCOCC2)ccc1O (stereo not given),"inconclusive [inhibitor, single point]",–
Cc1nc2ncnn2c(N2CCC(C(=O)NCC3CCCO3)CC2)c1Cc1ccccc1 (stereo not given),inactive,–
COc1cccc(C(=O)Nc2ccc(NC(=O)c3ccco3)nc2)c1,"inconclusive [inhibitor, single point]",–
CC(=O)Nc1cc([N+](=O)[O-])ccc1OCc1ccccc1,"inconclusive [inhibitor, partial curve]",–
O=C(OCC(=O)N1CCOCC1)c1cc(F)c(F)cc1Cl,inactive,–
COc1cc(SC)ccc1C(=O)NCc1ccc(C)cc1,"inconclusive [inhibitor, partial curve]",–
CN1CCN(c2ccc(CNS(=O)(=O)c3ccsc3)cc2)CC1,–,inconclusive: -35.9% [inhibitor]
c1ccc(Sc2ccccc2CN2CCCC2)cc1,inactive,–
C=Cc1ccc(Cn2c(C)c(C(=O)NCc3ccc4c(c3)OCO4)sc2=O)cc1,"inconclusive [inhibitor, single point]",–
